Variants at the floor of the assay are shown more often than the library holds them.
B1: TPR 5TU (parent)
chain: GGAUCUUCUCGAUCUAACAAAAAAGACAAAUCUGCCACAAAGCUUGAGAGCAUCUUCGGAUGCAGAGGCGGCAGCCUUCGGUGGCGCGAUAGCGCCAACGUUCUCAACUAUGACACGCAAAACGCGUGCUCCGUUGAAUGGAGUUUAUCAUG

Variants of: B1
Assay: polymerase ribozyme fitness, log enrichment relative to wild type (log ratio); higher = more active; in vitro selection for triplet polymerase activity
Procedure, shortened: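 Fitness compares each genotype's enrichment to that of the wild type on a logarithmic scale, averaging replicates with inverse-variance weights. The logarithm is base 2. Enrichment came from Illumina sequencing of input and output libraries after one triplicate round of in vitro selection, which included frozen incubation at −7 °C, of PCR-built, transcribed mutant libraries of each subunit of a heterodimeric triplet polymerase ribozyme. Only genotypes with ≥10 input reads and ≥1 read per output were kept.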

A30U G48C C96U A120C U145C C149G and A30U G48C G50A G80A G100C A147C cannot be ordered by “polymerase ribozyme fitness (log ratio)” value: at most -4.2 for the first, at most -4.2 for the second.

A30U G48U G81A G86U and A30U G50A G74A C79U G92U C93A A107U cannot be ordered by “polymerase ribozyme fitness (log ratio)” value: at most -4.2 for the first, at most -4.2 for the second.

A30U G50C and A30U G50C A52C A64G C95U cannot be ordered by “polymerase ribozyme fitness (log ratio)” value: at most -4.2 for the first, at most -4.2 for the second.

A30U G50C C96U U104C G136U and A30U G50C G68A C95U U101G U144C cannot be ordered by “polymerase ribozyme fitness (log ratio)” value: at most -4.2 for the first, at most -4.2 for the second.

A30U G58C G68A C99A and A30U G58U G92C C96G G117A C123G cannot be ordered by “polymerase ribozyme fitness (log ratio)” value: at most -4.2 for the first, at most -4.2 for the second.

A30U G59C G86C A97U A107U U109C A147C and A30U G59U C85U C95G C149G cannot be ordered by “polymerase ribozyme fitness (log ratio)” value: at most -4.2 for the first, at most -4.2 for the second.

A30U G62C G92C and A30U G65U A73U A113U U146C cannot be ordered by “polymerase ribozyme fitness (log ratio)” value: at most -4.2 for the first, at most -4.2 for the second.

A30U G68A A91G C99G C108U and A30U G68U A73U G140U cannot be ordered by “polymerase ribozyme fitness (log ratio)” value: at most -4.2 for the first, at most -4.2 for the second.

A30U G68U G92A A98G C99U G140U U144A and A30U G70A cannot be ordered by “polymerase ribozyme fitness (log ratio)” value: at most -4.2 for the first, at most -4.2 for the second.

A30U G70A C95G C103G G133U and A30U G70U cannot be ordered by “polymerase ribozyme fitness (log ratio)” value: at most -4.2 for the first, at most -4.2 for the second.

A30U G71C C95A and A30U G74A C93G C103A A106G A113U cannot be ordered by “polymerase ribozyme fitness (log ratio)” value: at most -4.2 for the first, at most -4.2 for the second.

A30U G86U and A30U G88A cannot be ordered by “polymerase ribozyme fitness (log ratio)” value: at most -4.2 for the first, at most -4.2 for the second.

Going from A30U G92A C99G G117A to A30U G92U, the “polymerase ribozyme fitness (log ratio)” value rises from at most -4.2 to -3.52.

Going from A30U G94C A121G to A30U G94U, the “polymerase ribozyme fitness (log ratio)” value falls from -3.43 to at most -4.2.

A30U G112A C116U A122U and A30U U33A A64G A66U G83C G117U cannot be ordered by “polymerase ribozyme fitness (log ratio)” value: at most -4.2 for the first, at most -4.2 for the second.

A30U U33C A138G and A30U U44G G133A cannot be ordered by “polymerase ribozyme fitness (log ratio)” value: at most -4.2 for the first, at most -4.2 for the second.

A30U U45A G50C C79G G83C G126C and A30U U45A U134G U145G cannot be ordered by “polymerase ribozyme fitness (log ratio)” value: at most -4.2 for the first, at most -4.2 for the second.

Compared with A30U U45G C93U C103G C118G, A30U U53A is higher in “polymerase ribozyme fitness (log ratio)” value: at most -4.2 for the first, -3.18 for the second.

A30U U53G C95A U145A G152U and A30U U55A C93A U101C C114U A138G cannot be ordered by “polymerase ribozyme fitness (log ratio)” value: at most -4.2 for the first, at most -4.2 for the second.

A30U U55A C105G and A30U U55A G67A A73G C96U cannot be ordered by “polymerase ribozyme fitness (log ratio)” value: at most -4.2 for the first, at most -4.2 for the second.

Compared with A30U U55A G74A C79U C87A C116A, A30U U55G C57A C93U is higher in “polymerase ribozyme fitness (log ratio)” value: at most -4.2 for the first, -4.13 for the second.

— the RNAGym collection of RNA variant scans (doi:10.1073/pnas.2313332121)
